The shares of active, inactive and inconclusive entries below differ from those in the screen. No potency is given beside an inconclusive call; the fits are too rough. Activity calls are given as the source filed them. Calls come from the whole dose curve; as a rule, active = well fitted inhibition curve with a large enough effect in the repeat runs; inconclusive = weak or mixed curves; inactive = flat fitted curve, though single readings scatter.
These compounds were tested against Cytochrome P450 2D6 (Homo sapiens) (UniProt P10635) (assay: Cytochrome P450 family 2 subfamily D member 6 (CYP2D6) small molecule antagonists: luciferase biochemical (cell-free) qHTS assay (AID 1645840; note: nearly all actives have a fitted effect of over 55% in size)). Details: P450-Glo CYP2D6 enzyme, luciferin luminescence, 1 h; series mostly up to 57.4 µM; activity change, negative = inhibition: at the top concentration.
Sequence of UniProt P10635 (P10635 whole entry, looked up): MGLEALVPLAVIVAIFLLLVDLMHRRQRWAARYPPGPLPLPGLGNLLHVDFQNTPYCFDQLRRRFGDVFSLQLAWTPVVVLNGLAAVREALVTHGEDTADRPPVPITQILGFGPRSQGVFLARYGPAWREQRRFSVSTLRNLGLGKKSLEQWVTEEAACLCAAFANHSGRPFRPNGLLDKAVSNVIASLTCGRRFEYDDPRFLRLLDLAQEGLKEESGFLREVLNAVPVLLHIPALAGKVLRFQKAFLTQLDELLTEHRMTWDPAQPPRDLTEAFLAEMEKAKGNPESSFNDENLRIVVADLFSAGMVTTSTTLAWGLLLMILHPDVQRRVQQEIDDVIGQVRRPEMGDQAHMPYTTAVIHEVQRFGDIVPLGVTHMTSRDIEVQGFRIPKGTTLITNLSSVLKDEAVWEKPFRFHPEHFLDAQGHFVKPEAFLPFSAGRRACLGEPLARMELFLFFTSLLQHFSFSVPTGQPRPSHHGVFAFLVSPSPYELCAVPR
Summary of the method: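 P450-Glo luminescent screen: recombinant CYP2D6 enzyme–proluciferin substrate mix preincubated with compound 10 min at room temperature, then NADPH regeneration added for 1 h at room temperature. Detection reagent added for 20 min; luciferin light read as relative luminescence units.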
COc1cc2nc(N(C)CCCNC(=O)C3CCCO3)nc(N)c2cc1OC (stereo not given) was tested, and the Potency was inconclusive [inhibitor, single point]. With COc1ccc(C2(C#N)CCC(C(=O)O)CC2)cc1OC1CCCC1 (stereo not given) the Potency was inconclusive [inhibitor, partial curve, poor fit]. With O=[N+]([O-])c1cn2c(n1)OC[C@@H](OCc1ccc(OC(F)(F)F)cc1)C2 the Potency was inconclusive [inhibitor, single point]. For CN(C)C(=O)c1ccc(S(=O)(=O)c2ccc(NC(=O)[C@@](C)(O)C(F)(F)F)c(Cl)c2)cc1, the Potency was inconclusive [inhibitor, partial curve, poor fit]. Cn1c(CNc2ccc(C(=N)N)cc2)nc2cc(C(=O)N(CCC(=O)O)c3ccccn3)ccc21 was tested, and the Potency was inconclusive [inhibitor, single point]. C[C@@H](N)c1ccc(C(=O)Nc2ccnc3[nH]ccc23)cc1 was tested, and the “activity change, negative = inhibition” value was inactive: 2.42%. CN(C)c1nc(Cc2ccc(NC(=O)c3ccc(C(F)(F)F)cc3)cc2)nc(N(C)C)c1CC(=O)O was tested, and the “activity change, negative = inhibition” value was inactive: 4.17%. With COc1cccc(Nc2c(C(N)=O)cnc3c(C)cc(S(=O)(=O)c4cccc(C(=O)N(C)C)c4)cc23)c1 the Potency was inconclusive [inhibitor, partial curve]. CNc1nccc(-c2cccnc2Oc2cc(C(=O)Nc3cccc(C(F)(F)F)c3)ccc2C)n1 was tested, and the Potency was inconclusive [inhibitor, full curve]. CCCCn1c(=O)n(Cc2ccccc2F)c(=O)c2[nH]c(Cc3ccc(NC(C)=O)cc3)nc21 was tested, and the Potency was inconclusive [inhibitor, partial curve].

— PubChem BioAssay (NCATS)
% is set by controls: 0 for no effect and ±100 for the full control effect; potency is the fitted concentration of half-maximal effect; tags give direction and shape of the fitted curve.
